# Assay results taken from the supplement of paper PMC11417369.
# ± gives the standard deviation of the averaged measurements. Some of the results follow.
# Test system: PfAP2-LT AP2 domain (GST-tagged)
# Assay: gcPBM binding intensity (ln(normalized median fluorescence intensity)); higher = stronger DNA binding
# In short: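 GST-tagged P. falciparum DNA-binding domains, expressed in E. coli (about 25 μg on average), were applied for 1 h to an Agilent 4 × 180k array of primer-extended double-stranded 36-bp intergenic genomic probes plus negative controls. The binding buffer was 1× PBS with 1% milk, 0.2 mg/ml BSA, 0.5% salmon testes DNA and 0.03% Triton X-100. Bound protein was detected with Alexa488 anti-GST antibody and scanned at 488 nm. Binding intensity is the highest Masliner-normalised natural-log median intensity across replicate spots of either probe orientation.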
row,Sequence,gcPBM binding intensity (ln)
1,CAAAAAAAGAAAGCTACACACATTTATGTGCTATAT [CACACA_site2777],9.02 ± 0.54
2,TTTCCATTTTCTCTATGTACATAAAAATGAGATAAA [XGTACX_site5689],8.29 ± 0.39
3,CACACGCACGGACACACACACAAAAAAAAAAAGAAA [CACACA_site6378],9.34 ± 0.58
4,AAGACCATATGAATAATGCACACGTTTTAAAATATT [CACACA_site2323],9.12 ± 0.4
5,ATATTTATGGAATATACACACATGTATAATTACATA [CACACA_site7045],8.83 ± 0.4
6,TCTTTGTACTTTCACATGTACACCCAAATGGAAATT [CACACA_negctrl_site1442],8.76 ± 0.41
7,AAATAAATCTTATGCACACAAATAATTAATGAAACA [CACACA_site5011],8.96 ± 0.49
8,AGGACTAATATTTGAACACACATATAATAAATACAT [CACACA_site6068],9.09 ± 0.47
9,GTTTGGTGGTGTTTTGGTACGTACGGGGGTGTATGT [XGTACX_site1211],9.88 ± 0.16
10,TGGAAAATAAAGTACGCACACAAAAATTCTCTTCAT [CACACA_site2327],9.14 ± 0.4
11,AATATATTTTAGAGTTTTATATATTTTATGCATATA [GTGCAC_negctrl_site710],8.66 ± 0.49
12,TTCAAACATATTAATTGTACATACAACAAAACCATG [XGTACX_site5149],8.72 ± 0.44
13,ATATTATTTTATGCTACACACATTTTCTCTTATAAA [CACACA_site943],9.02 ± 0.44
14,GGAATTTTTATTCGAAGTACTGTTGTGAGTAATAAA [XGTACX_site8599],8.51 ± 0.44
15,TAAATGTTAAAATTCACACAAATATGTGCGGAATAT [CACACA_site5055],8.77 ± 0.38
16,TTTGACTAAATTAAATATTAAAGTATGGATTATTCT [CACACA_negctrl_site833],8.28 ± 0.45
17,ATATATAATATATACACACACATGTATATATAAATA [CACACA_site1968],9.26 ± 0.34
18,TGCAAGGAACAACACACACACACATAAATGTATATA [CACACA_site8149],10.2 ± 0.36
19,ACCCATTTGATAATAATGCACACCACATATATTTAT [CACACA_site3061],9.24 ± 0.4
20,AAAAAAAAAAAACACACACACACATTCAATATAAAA [CACACA_site40],9.76 ± 0.28
21,ATATGTATTTATGTATTTATGTATTTTTATATTTTT [CACACA_negctrl_site595],8.93 ± 0.5
22,TTTTTTATTTTTTGTTATATTTATAATAATTTATGA [XGTACX_negctrl_site260],8.31 ± 0.54

row,Sequence,gcPBM binding intensity (ln)
1,TACTTTACACATATTTTTAATTATTCTGAATTCAAA [GTGCAC_negctrl_site253],8.44 ± 0.44
2,ATATATATATATGTAGTGCATTTTATATATAATATT,9.05 ± 0.13
3,TAAAAGTTCACCTGTACACACATATATATATGTACA [CACACA_site1707],9.07 ± 0.31
4,AAGAAATAAATACATACACACATATATATATATATA [CACACA_site3362],9.97 ± 0.2
5,ATAAGTAATATAATATGTACATATATATATATATAT [XGTACX_site3818],9.67 ± 0.23
6,TATATATTGTTATAATGTACATAATATTTTATCTGC [XGTACX_site4983],8.79 ± 0.44
7,GGAAATTTCAATATTTGTACATATATATATATATAT [XGTACX_site3222],9.28 ± 0.45
8,AGAATAATTTTATCGGTACACACTGTATGCATAATA [CACACA_site374],8.97 ± 0.32
9,ATGCAAAATAAAGAAGCACACAAAAATGAAATATAT [CACACA_site9217],9.26 ± 0.4
10,TACAGATATTTTATTTCACACATTTTATCATTTTCT [CACACA_site5701],8.97 ± 0.37
11,TTCAAAAAAGGAAAGTTGCACTTGATACGCTTATTA [GTGCAC_site9411],8.46 ± 0.37
12,TTCTATATTTCTTTTTGTACATATAAATTCAAATAA [XGTACX_site2476],8.52 ± 0.52
13,TATATACGCATTTTTATACACACTTGTTTTATAAAA [CACACA_site727],8.79 ± 0.35
14,ATATAAAATAATACATGTACATATTATATATATATA [XGTACX_site1082],9.02 ± 0.12
15,ATTTTTTTTTCTTAATGTACATACCAAAAAGAAAGA [XGTACX_site5471],8.3 ± 0.35
16,TATAATATATTTTAATGTACGTACATCCCGATTAAT [XGTACX_site7651],8.76 ± 0.43
17,TTTGTCTGCATACGCACACACGTGTACCATCTTATG [CACACA_site4784],9.78 ± 0.41
18,GATAAAATATGTTGCCGTACATATTCATATACTTAA [XGTACX_site4776],8.79 ± 0.4
19,TATTAATATATATGTTGTACAAGTTTTTTTTTTTTT [XGTACX_site5865],8.59 ± 0.5
20,TTCTTTATTTTTTCTACACACATTATATATTCAAAG [CACACA_site5866],8.98 ± 0.44
21,AAATATTAAATGACAAAAAAAAAAAAAAAAGGGGTT [CACACA_negctrl_site951],8.86 ± 0.47
22,TATTTTGAAAATAAAAGTACAAATTTTATATTTAAA [XGTACX_site3238],8.14 ± 0.41

row,Sequence,gcPBM binding intensity (ln)
1,TATTTATATTCATAATGTACATTCAATTATTGTTTT [XGTACX_site4191],9.11 ± 0.61
2,AATATAATATAATGCACACATAAACAAAAAAAAAAA [CACACA_site783],9.06 ± 0.4
3,AACAAAGAAAATACATGTACAAAAAATATTAACGAA [XGTACX_site287],9.15 ± 0.5
4,TGGTATTTTGATGATAAAAGGAAATTTTTTTTATAC [XGTACX_negctrl_site111],8.23 ± 0.45
5,GTTAGCATATTAAGTTGTACACAATTATTCTTCAAT [XGTACX_site8324],8.8 ± 0.38
6,TTTAATACGAATGAGGCACACACCTAGTATACATGC [CACACA_site621],9.11 ± 0.36
7,TTTAATTTTTTTAAAACACACAAATATATATATATA [CACACA_site3898],8.63 ± 0.33
8,CAAAATAATATATATACACACACACCGATATATATA [CACACA_site8082],9.81 ± 0.18
9,GTAATTAAAATATATACACACAAAGGCTATTAAATA [CACACA_site1011],8.94 ± 0.44
10,ATTTATGAAAGAAATAGTACACACATAAACATTTGT [XGTACX_site5862],9.03 ± 0.36
11,TATATAAAATATTAATGTACATATAAATATATATAT [XGTACX_site6656],8.66 ± 0.4
12,AATTATATATTAAAAAGTACAAGTTAATATAATATA [XGTACX_site2737],8.57 ± 0.47
13,ATATAAAAAAATTGCACACATAAATATATACATATA [CACACA_site1218],8.96 ± 0.39
14,GATACATAGAAACACACACACATACATATATACATA [CACACA_site3438],9.92 ± 0.26
15,TTTATGTACAGACATATACACACCTCTATAATATAT [CACACA_site730],8.99 ± 0.4
16,TCACAAAAAGAACATTGATATTATTATAAAATCGTC [GTGCAC_negctrl_site177],8.65 ± 0.43
17,TTACAAAAATTTTGTTCACACATAAAAATATGTTAC [CACACA_site5740],8.59 ± 0.39
18,TAATAAATTATTTTTTATTATTTTAATAACACTTCA [CACACA_negctrl_site3],8.4 ± 0.49
19,ATATATTTTTCAAAATGTACAAATAATTAAATACCA [XGTACX_site875],8.52 ± 0.33
20,ATTAATAATCGAAAGGTGCACTTTGATTTGATAACA,8.79 ± 0.49
21,TAATTAAAATTATTTATAAATTAGTATATTTCTATA [CACACA_negctrl_site663],8.27 ± 0.57
22,TTATTATTTTATCGTAGTACACCTAAATTATAAAAC [XGTACX_site5251],8.46 ± 0.46

row,Sequence,gcPBM binding intensity (ln)
1,TTAGTAAATACATTTGCACACATTATTTTTTAACAT [CACACA_site5448],9.14 ± 0.45
2,TTTCAAAATTTTTATTTTAAATAAACATTTATAAAA [CACACA_negctrl_site1588],7.91 ± 0.47
3,ATTTATTTATTTATATGTACTTAAATGAAAGGAATA [XGTACX_site6024],8.31 ± 0.3
4,ATATGGCACATATGTACACACGTATAGATAATATTA [CACACA_site5162],9.23 ± 0.45
5,CCGATATAATGGAAAACACACAAAAGATATATATAT [CACACA_site2683],9.2 ± 0.42
6,ACATACATTTTTAAATGTACATATATATATATATAT [XGTACX_site6751],9.525 ± 0.078
7,AATATTATATGGACGTGTCCACATAAACCTATATAT [XGTACX_site2053],8.87 ± 0.42
8,GGAAATATAAAATCATGTACATATGTATATATAATT [XGTACX_site5491],8.97 ± 0.5
9,ATGAATATATATATTTGTACATATGTATATATATAT [XGTACX_site7527],8.91 ± 0.36
10,TATATATTTTTTTCATGTACTTATTATATATATATA [XGTACX_site5321],8.79 ± 0.44
11,AGTATAGATGTATACACACACCAAACGTTAAAAAAA [CACACA_site7443],9.39 ± 0.51
12,TATCATCATGTATGTACACACATACAGATATTATGT [CACACA_site4888],9.23 ± 0.42
13,AAATACAAAATTGTTACACACATATTAATTATGACA [CACACA_site476],8.87 ± 0.4
14,TATATTTTAAAATTATGTACATATATAGATAAATGT [XGTACX_site1349],8.57 ± 0.43
15,ATATAAATATAGTGTGCACACACATAATATATATAT [CACACA_site8713],9.6 ± 0.28
16,ATATATATATATAATACACACATCATAAAATATGTA [CACACA_site2518],9.06 ± 0.35
17,AAAATAAATTGTGAAGGTACACAAATTATTATGTGG [XGTACX_site4196],8.85 ± 0.47
18,TCGATATATAGACACACACACTTTTAATAATTAAAT [CACACA_site7726],9.37 ± 0.38
19,TACAAACAGACATATACACACAAAAAAAAAATAAAA [CACACA_site2562],9.16 ± 0.43
20,TTATGCAGATAAAAGAGTACATATTCGTTACATACA [XGTACX_site2849],8.77 ± 0.43
21,AATCATATTTAGATTACACACAGTTTAAATATTTTA [CACACA_site1263],8.64 ± 0.4
22,TATATATATATATATATATATATATATATAATATTA [XGTACX_negctrl_site558],9.245 ± 0.035
